# Measurements from PubChem BioAssay AID624417 (National Center for Advancing Translational Sciences (NCATS), 2012).
# Out of some 410,000 compounds screened, about 6,400 (1.6%) were called active. Inconclusive results, whose numbers are uncertain, are shown with a selection of clear calls. Calls follow the shape of the dose curve; as a rule, active = well fitted inhibition curve with a large enough effect; inconclusive = small, poorly fitted or top-dose-only effect; inactive = no such curve, though single readings can be large or run the other way. No potency is given beside an inconclusive call; the fits are too rough.
# Molecular target: Glucagon-like peptide 1 receptor (Homo sapiens) (UniProt P43220)
# Sequence of UniProt P43220 (P43220 whole entry, looked up): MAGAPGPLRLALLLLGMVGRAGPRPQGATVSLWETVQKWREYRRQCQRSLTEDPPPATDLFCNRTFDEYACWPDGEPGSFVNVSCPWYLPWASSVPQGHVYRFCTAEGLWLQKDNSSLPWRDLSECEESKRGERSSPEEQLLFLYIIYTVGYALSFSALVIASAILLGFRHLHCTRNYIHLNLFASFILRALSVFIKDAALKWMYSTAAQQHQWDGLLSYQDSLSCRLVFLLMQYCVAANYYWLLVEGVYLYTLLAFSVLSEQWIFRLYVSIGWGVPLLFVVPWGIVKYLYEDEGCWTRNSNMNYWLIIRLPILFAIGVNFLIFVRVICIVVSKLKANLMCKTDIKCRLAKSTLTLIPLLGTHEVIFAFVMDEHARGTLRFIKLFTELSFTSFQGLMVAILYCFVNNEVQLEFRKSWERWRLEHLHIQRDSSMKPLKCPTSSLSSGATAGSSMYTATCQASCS
# Assay: qHTS of GLP-1 Receptor Inverse Agonists (Inhibition Mode); also: nearly all actives have a fitted effect of over 55% in size
# Details: HEK293 GLP-1R CRE-luciferase, luminescence, 24 h, GLP-1R form is constitutively active; activity change, negative = inhibition: at 38.3 µM (top of the series) unless noted
# Summary of the method: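 Cells are plated, allowed 12 hours at 37 deg C, then treated with compounds for 24 hr before luciferase detection reagent is added and luminescence is read after 12 min at room temperature. The HEK293 line carries constitutively active GLP-1R with a cAMP-responsive reporter.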
# % is scaled to controls: 0 for no effect and ±100 for the full control effect; potency is read from the fitted curve at half-maximal effect; tags tell the direction and shape of the fitted curve.
SMILES,Potency,"activity change, negative = inhibition"
COc1ccccc1Cc1c(C(C)(C)C)nc2c3ccccc3ccn12,"inconclusive [inhibitor, full curve, poor fit]",
Cc1ccc(S(=O)(=O)N2CCC(C(=O)NCCCOC(C)C)CC2)cc1,"inconclusive [inhibitor, full curve, poor fit]",
CC1(C(=O)Nc2cccc(Oc3ccccc3)c2)Cc2c(-c3ccccc3)ccnc2O1 (centres undefined),"inconclusive [inhibitor, partial curve, poor fit]",
CCN(CC(=O)Nc1c(C(=O)OC)[nH]c2ccc(Cl)cc12)c1ccc2c(c1)OCO2,"inconclusive [inhibitor, single point]",
Cc1ccc(C(=O)Nc2ccc(S(=O)(=O)N3CCCC3)cc2)s1,"inconclusive [inhibitor, partial curve, poor fit]",
COC(=O)C1=C(C)N(Cc2ccccc2)C(=NCc2ccc(OC)cc2)N[C@H]1c1cccc(F)c1,"inconclusive [inhibitor, single point]",
CC1=C/C(=N\N=C2\NC(=O)C(CC(=O)Nc3ccccc3F)S2)CC(C)(C)C1 (centres undefined),"inconclusive [inhibitor, single point]",
CCN1C(=O)[C@H]2[C@@H](c3ccc(C)cc3)N3C(=O)N(c4ccc(C(F)(F)F)cc4)C(=O)[C@@]3(Cc3ccccc3)[C@H]2C1=O,"inconclusive [inhibitor, partial curve]",
CC(C(=O)O)n1cc(C#N)c(=O)[nH]c1=O (centres undefined),inactive,
COc1ccc(N2CCCn3c2nc2c3c(=O)n(Cc3ccccc3F)c(=O)n2C)c(OC)c1,"inconclusive [inhibitor, partial curve, poor fit]",
CCCOC(=O)C1=C(C)NC2=C(C(=O)CCC2)C1c1cccc(OC)c1OC (centres undefined),inactive,
Cc1cccc(OCC(=O)Nc2ccc(Cl)c(-c3nc4ccccc4[nH]3)c2)c1,"inconclusive [inhibitor, partial curve, poor fit]",
CC(CNCC1CCCO1)COc1cccc2ccccc12 (centres undefined),"inconclusive [inhibitor, partial curve, poor fit]",
Cc1cc(C(F)F)n2nc(C(=O)Nc3ccc(F)cc3F)nc2n1,inactive,
NS(=O)(=O)c1ccc(NC(=S)NCCc2ccccc2)cc1,"inconclusive [inhibitor, single point]",
COC(=O)C12CCC(C)(c3nc4ccccc4nc31)C2(C)C (centres undefined),"inconclusive [inhibitor, partial curve]",
CCCOc1ccc(NC(=O)CC2C(=O)N(c3ccc(Cl)cc3)C(=O)N2CCc2ccncc2)cc1 (centres undefined),"inconclusive [inhibitor, single point]",
CC12CCC(C(=O)N(c3ccccc3Cl)C1=O)C2(C)C (centres undefined),"inconclusive [inhibitor, full curve]",
CCc1nnc(NC(=O)CN2CCN(Cc3cccc(OC)c3)CC2)s1,"inconclusive [inhibitor, full curve, poor fit]",
Cc1cccc(-n2nnnc2SCc2csc(-c3ccccc3)n2)c1,"inconclusive [inhibitor, single point]",

SMILES,Potency,"activity change, negative = inhibition"
CN(C)CCN(C(=O)c1cccc(N2C(=O)CCC2=O)c1)c1nc2ccc(Br)cc2s1,"inconclusive [inhibitor, partial curve, poor fit]",
CCOC(=O)c1c(NC(=O)CSc2ccccc2C(=O)O)sc(C)c1C,,inactive: -0.48% [at 0.307 µM]
CC[C@H](C)[C@@H](NC(=O)O[C@@H]1C(=O)c2cc(Br)ccc2O[C@H]1c1cccc(OC)c1)C(=O)OC,"inconclusive [inhibitor, partial curve, poor fit]",
CN1CCN(C(=O)C23CCC(C)(c4nc5ccccc5nc42)C3(C)C)CC1 (centres undefined),inactive,
Cc1cc(C)cc(Nc2nnc(-n3nc(C)cc3C)c3ccccc23)c1,"inconclusive [inhibitor, single point]",
CC1=C(c2ccc(C)c(C)c2)S(=O)(=O)N=C1N1CCC(C(=O)Nc2cccc(F)c2)CC1,"inconclusive [inhibitor, single point]",
COc1ccccc1OCC(=O)NN=C(Cc1ccccc1)Cc1ccccc1,"inconclusive [inhibitor, single point]",
COc1ccccc1NC(=O)Cn1c(=O)n(-c2cccc(Cl)c2)c(=O)c2c1c1cc(C)ccc1n2C,inactive,
CCC(=O)N1CCCc2cc(S(=O)(=O)N3CCC(C(=O)Nc4ccccc4CC)CC3)ccc21,inactive,
Cc1ccc(N(Cc2cc3ccccc3[nH]c2=O)C(=O)c2cccs2)cc1,"inconclusive [inhibitor, partial curve, poor fit]",
Cc1cccc(NC(=O)CSCC(=O)Nc2ccc(S(=O)(=O)N3CCOCC3)cc2)c1,"inconclusive [inhibitor, single point]",
Clc1ccc(-c2nc3ccc(Cl)cn3c2Cc2cccc(Cl)c2)cc1,"inconclusive [inhibitor, partial curve, poor fit]",
CCc1nc2ccc(C(=O)NCCCn3ccnc3)cn2c1N(C)Cc1nccs1,inactive,
CCOC(=O)C1(Cc2ccccc2)CCN(Cc2cccc3nccnc23)CC1,"inconclusive [inhibitor, single point]",
Cc1onc(-c2c(Cl)cccc2Cl)c1C(O)c1ccccc1 (centres undefined),,inconclusive: -72.3% [inhibitor]
COc1ccc(C(=O)N2CCCc3ccccc32)cc1Br,"inconclusive [inhibitor, single point]",
CCCOc1ccc(C2c3c(-c4ccccc4O)n[nH]c3C(=O)N2CCCOCC)cc1OCC (centres undefined),"inconclusive [inhibitor, partial curve, poor fit]",
O=C(c1ccccc1)c1coc2ccc(O)c(Cl)c12,inactive,
CC(C)n1cc(CN2CCC(C(=O)Nc3cccc(-c4cccc(Cl)c4)c3)CC2)cn1,"inconclusive [inhibitor, partial curve, poor fit]",
